No constants are given. Whether binding was seen depends on the method and setting. Binding seen in cells or lysates may run through a third protein. Some results given as binding are weak or reduced against the parent protein; the word gives no strength.
What was measured:
Details in all cases: remark: other sources report otherwise
[1] = biological target: T1, survival of motor neurons (SMN) protein (human (endogenous in HeLa)), Q16637; experiment: co-IP; MANSMA1 anti-SMN mAb on anti-mouse Ig Dynabeads, 16 h at 4°C with HeLa nuclear extract (420 mM KCl, 20 mM HEPES-KOH pH 7.9), washed 5x with PBS, western blot
[2] = biological target: T1, survival of motor neurons (SMN) protein …; experiment: co-IP; MANSMA1 anti-SMN mAb on anti-mouse Ig Dynabeads, 16 h at 4°C with HeLa cytoplasmic extract (10 mM KCl, 10 mM HEPES-KOH pH 7.9), washed 5x with PBS, western blot
[3] = biological target: T1, survival of motor neurons (SMN) protein …; experiment: co-sedimentation; HeLa cytoplasmic extract (low salt) on 15-30% sucrose density gradient in 150 mM NaCl, 50 mM Tris HCl pH 7.4, 5 mM MgCl2, 21 hours at 4°C; fractions western blotted

Measured: binding

B1: gemin4, P57678 1-1058 (protein)
chain: MDLGPLNICEEMTILHGGFLLAEQLFHPKALAELTKSDWERVGRPIVEALREISSAAAHSQPFAWKKKALIIIWAKVLQPHPVTPSDTETRWQEDLFFSVGNMIPTINHTILFELLKSLEASGLFIQLLMALPTTICHAELERFLEHVTVDTSAEDVAFFLDVWWEVMKHKGHPQDPLLSQFSAMAHKYLPALDEFPHPPKRLRSDPDACPTMPLLAMLLRGLTQIQSRILGPGRKCCALANLADMLTVFALTEDDPQEVSATVYLDKLATVISVWNSDTQNPYHQQALAEKVKEAERDVSLTSLAKLPSETIFVGCEFLHHLLREWGEELQAVLRSSQGTSYDSYRLCDSLTSFSQNATLYLNRTSLSKEDRQVVSELAECVRDFLRKTSTVLKNRALEDITASIAMAVIQQKMDRHMEVCYIFASEKKWAFSDEWVACLGSNRALFRQPDLVLRLLETVIDVSTADRAIPESQIRQVIHLILECYADLSLPGKNKVLAGILRSWGRKGLSEKLLAYVEGFQEDLNTTFNQLTQSASEQGLAKAVASVARLVIVHPEVTVKKMCSLAVVNLGTHKFLAQILTAFPALRFVEEQGPNSSATFMVSCLKETVWMKFSTPKEEKQFLELLNCLMSPVKPQGIPVAALLEPDEVLKEFVLPFLRLDVEEVDLSLRIFIQTLEANACREEYWLQTCSPFPLLFSLCQLLDRFSKYWQLPKEKRCLSLDRKDLAIHILELLCEIVSANAETFSPDVWIKSLSWLHRKLEQLDWTVGLRLKSFFEGHFKCEVPATLFEICKLSEDEWTSQAHPGYGAGTGLLAWMECCCVSSGISERMLSLLVVDVGNPEEVRLFSKGFLVALVQVMPWCSPQEWQRLHQLTRRLLEKQLLHVPYSLEYIQFVPLLNLKPFAQELQLSVLFLRTFQFLCSHSCRDWLPLEGWNHVVKLLCGSLTRLLDSVRAIQAAGPWVQGPEQDLTQEALFVYTQVFCHALHIMAMLHPEVCEPLYVLALETLTCYETLSKTNPSVSSLLQRAHEQRFLKSIAEGIGPEERRQTLLQKMSSF
binds: all assays above
